Over roughly 16,000 sequences, “Z-score” has its median near -0.37; the highest 2% begin near 3.2. Some of the results follow.
Each sequence was assayed on RBM10 RRM1-ZnF (GST-tagged construct) (assay: RNAcompete 7-mer binding Z-score; higher = stronger binding preference).
Description: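 RNAcompete: 20 pmol GST-tagged RBM10 RNA-binding constructs were incubated with a designed RNA pool of about 241,000 sequences up to 41 nt (1.5 nmol) on glutathione beads for 30 min at 4 °C and washed. Bound RNAs were identified by microarray hybridisation. Each RNA 7-mer is scored by a one-sided Z-score of its enrichment, computed over probes that contain the 7-mer within longer pool sequences.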

Sequence	RNAcompete 7-mer binding Z-score
CUCUAAC	-0.717
CUCGGCC	-0.659
UACUGGC	-0.662
GGAACUU	0.0755
AAUGCGU	-0.366
GUCCGUA	-0.526
AGAACCG	-0.717
UAUGAGG	1.26
GGAUGCC	0.677
UAGGUUA	1.11
AAGUGCU	-0.272
UGGAGUU	1.77
UACGUCA	-0.24
GAAUUUA	-0.36
AUUACAG	-0.178
ACUCACA	-0.662
UGAUUGG	1.44
CGUGACC	-0.672
GGGCACU	0.904
UGAAGUG	1.19
CGGCAGU	-0.116
GUAUUCU	-0.6
UUACGCC	-0.772
GCGCGGU	0.979

Sequence	RNAcompete 7-mer binding Z-score
GCAUCAG	0.261
GUCCCCC	-0.0869
GACUAGC	-0.282
CGACCGC	-0.779
GGGAAGA	3.86
CCGGUAC	-0.331
UCUUGGC	-0.539
GGGGGGC	2.37
CUGAAGA	-0.409
UCAUUUC	-0.909
GGUAGAU	1.73
UGUUCAC	-0.766
CUAUCUA	-0.672
UAGACUA	-0.435
UACUCGA	-0.483
UUCCAGC	-0.727
CUUGGCA	-0.451
CUCAAGU	-0.571
GAAAACG	0.53
GCCCCCG	0.082
CGUUCAG	-0.373
AAUUCAA	-0.607
CUGGAGA	0.501
ACACGGC	-0.191

Sequence	RNAcompete 7-mer binding Z-score
CUCUCAG	-0.552
CGAAGAU	-0.451
UCAGUAC	-0.451
GCAAAGU	0.287
CACAAUU	-0.636
GAACACC	-0.483
AUGGUUC	0.14
CACGCAA	-0.464
AGACGUG	0.261
AUUACCA	-0.772
CGUUUCG	-0.503
ACCGUGA	-0.529
GGCCCAU	-0.711
GUUUCCU	-0.678
GUAAGGC	1.67
UUAGACG	-0.00246
UGCUAGA	-0.233
CAACUAC	-0.591
ACGCAUA	-0.383
CGGCGUU	-0.0122
UGGGAGU	2.27
UUGUACA	-0.379
CGUCGAA	-0.347
CGUUCGU	-0.542

Sequence	RNAcompete 7-mer binding Z-score
ACGAACC	-0.548
UUGAAGU	-0.262
UGACGUC	-0.565
GCAUGUA	-0.253
CCGAAAC	-0.74
CCAGAUC	-0.594
AGAUUCU	-0.756
GGUUUGC	0.962
CGCUCAU	-0.769
UUCGUAG	-0.35
UAUAAGG	1.24
AGAUCCC	-0.87
GACAAUA	-0.0869
CCUUAAU	-0.72
CCGGGCG	0.807
UAAAGCU	-0.655
CCCCGCC	-0.236
CCUGUUC	-0.857
CACCCAA	-0.629
AGCUUGA	-0.318
AGCGUCC	-0.707
CGCUUCC	-0.587
CCUCGAU	-0.717
GGACUAG	0.953

Sequence	RNAcompete 7-mer binding Z-score
GAUUACG	0.0755
CGGUUGG	2.56
AGCAGGU	1.8
GUUAAAC	-0.162
GUGGAAA	2.63
AGUCGCU	-0.35
CACACGG	0.433
UGUCGCU	-0.396
AUCGCGU	-0.412
GUCGCAC	-0.207
GGGUUUA	2.09
UUUAAUA	-0.626
UAGUCAG	0.3
AAUUUGC	-0.798
GGGUUCC	0.683
UGAUAGG	2.18
CGUGUGG	1.16
ACGCGAG	0.056
CACGUUU	-0.815
CGAGUUA	-0.301
ACCUCCG	-0.681
GCUGUGC	-0.0252
AGGUACA	0.745
UUCCUGC	-0.779

Sequence	RNAcompete 7-mer binding Z-score
UAUUUAC	-0.841
AUGACAC	-0.292
CACAGAC	-0.292
UUCGCAU	-0.75
CAUAGAU	-0.5
GCUCCAG	-0.344
CAACAAA	-0.503
CCCGGCC	-0.558
CAGAUGC	-0.0739
GCCACUA	-0.535
AAUCAUA	-0.587
AUCGUCG	-0.451
CGGGCGU	1.23
ACACGCC	-0.61
AUGACUA	-0.288
GGCGACC	0.394
GAAAGUG	1.57
AUGAGCU	0.056
CACUUGA	-0.581
AGGCGAG	1.37
GCAUUAA	-0.539
ACACUCU	-0.821
GAAUCGG	1.41
CGAGUCU	-0.483

Sequence	RNAcompete 7-mer binding Z-score
CCUCAUA	-0.906
AUUCCGC	-0.886
AAACGUU	-0.344
CGAAACA	-0.399
ACCAUAC	-0.776
UUCUCAU	-0.73
CCCUGUC	-0.636
AGGAGAC	1.22
GAGGGGU	3.59
ACGCAUC	-0.704
UUGAGCC	-0.529
GAUCAGG	1.71
CGAACGG	1.21
UGAUAUC	-0.353
ACGAAUA	-0.24
ACCCUGA	-0.347
AUAUGAG	0.673
AACAACA	-0.129
UGCCAGG	0.42
AACACAA	-0.331
UUCAUUA	-0.519
UGGUAAC	0.982
CCGGCCU	-0.743
UUUAGCA	-0.652

Sequence	RNAcompete 7-mer binding Z-score
AUCAAAG	-0.295
UACGCGC	-0.396
GAACAAC	-0.233
CCUAGAU	-0.626
UGGGGGA	3.71
CUGCGAU	-0.73
GGUACAC	0.638
ACCUAAU	-0.863
ACGUGCG	-0.0479
GCUUCGC	-0.623
UCCAAUC	-0.847
AAUGGGC	2.5
UACUACC	-0.811
UCAUUUG	-0.756
CCAGAAG	-0.37
GCCCCUC	-0.295
GUUGGCC	0.218
CGGACUC	-0.415
AGAACCA	-0.769
UCUGGAA	-0.23
GAACUAA	-0.285
GUUUGGG	3.59
CCCCAGA	-0.386
UUGUAGG	1.67

Sequence	RNAcompete 7-mer binding Z-score
AUGAAAC	-0.444
ACGGUGA	1.1
ACCUCAC	-0.678
AAUUGGA	1.6
GUACACU	-0.279
UGGGCAG	2
UUAUUCA	-0.555
GUACUAA	-0.236
AGUAUGU	0.0203
CUUGGAG	0.608
UACCCAU	-0.948
AUCGACA	-0.392
CGCAUAC	-0.61
CCUGUCU	-0.808
ACGUAUU	-0.503
UCAUCGU	-0.639
UCGUGCA	-0.555
CAUUUCG	-0.915
CUAGAUG	-0.188
CGCGCUG	-0.129
CGAGCGG	3.69
GGGUCGA	1.84
ACAUUCG	-0.649
GAUGCGG	2.18

Sequence	RNAcompete 7-mer binding Z-score
UCAUUGA	-0.259
UAUAGAA	-0.11
GUAAAAG	0.901
CCCACGC	-0.259
CAACUGU	-0.668
CACUGAG	-0.106
UAGGGAU	2.45
ACCAUUA	-0.847
CCGGGUA	0.625
GCUCGGC	-0.0772
AACGCGU	-0.259
UCGAUUG	-0.314
UAACGAA	-0.535
GAGAGAC	0.186
UACAUCG	-0.503
CCAUAAC	-0.769
GGAGUUC	0.426
GGGUAAU	3.01

From the supplement of paper PMC5499739
